The campaign covered roughly 360,000 compounds. About 740 (0.21%) were called active. The shares of active, inactive and inconclusive entries below differ from those in the screen. Calls follow the shape of the dose curve; as a rule, active = well fitted inhibition curve with a large enough effect; inconclusive = small, poorly fitted or top-dose-only effect; inactive = no such curve, though single readings can be large or run the other way. Potencies of inconclusive entries are left out as doubtful fits.
Each compound was assayed on Plasmodium falciparum AMA1 (3D7) - RON2 peptide interaction (assay: qHTS for Inhibitors of AMA1-RON; Towards Development of Antimalarial Drug Lead: Primary Screen). Conditions: AlphaScreen AMA1-biotinylated RON2 peptide binding; activity change, negative = inhibition: at 58.2 µM (top of the series) unless noted.
In short: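 AMA1 (3D7) with his tag at 25 nM final met compounds first, then biotinylated RON2 peptide at 25 nM; detection used donor plus acceptor beads, 10 µg/mL apiece, read by AlphaScreen after 30 min at room temperature.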
For CC(C)(C)c1ccc(C(=O)c2cn[nH]c2-c2ccccc2O)cc1, the “activity change, negative = inhibition” value was inactive: 45.6%. Cc1nc2nc(SCC(=O)c3cccc([N+](=O)[O-])c3)[nH]c2cc1Br was tested, and the “activity change, negative = inhibition” value was inactive: 62%. In the case of O=C1/C(=C/c2ccncc2)SC(=S)N1Cc1ccccc1, the Potency is reported as inconclusive [inhibitor, single point]. Fc1ccc(-c2cc(C(F)(F)F)n3ncnc3n2)cc1 was tested, and the Potency was inconclusive [inhibitor, full curve, poor fit]. In the case of CCOc1ccc(N(CC(=O)N2CCN(c3ccc(F)cc3)CC2)S(=O)(=O)c2c(C)noc2C)cc1, the “activity change, negative = inhibition” value is reported as inactive: -6.18%. With COCCN=c1scc(-c2ccccc2)n1/N=C/c1c[nH]c2ccccc12 the Potency was inconclusive [inhibitor, single point]. For CC(=O)c1c(C)[nH]c(C(=O)CSc2nc3ccccc3c(=O)n2CCCN2CCOCC2)c1C, the Potency was inconclusive [inhibitor, single point]. With c1ccc(C2Nc3ccccc3C3OCCCC23)cc1 (configuration not stated) the Potency was inconclusive [inhibitor, single point]. With COc1ccc(S(=O)(=O)N2CCCC(C(=O)NCCC(C)C)C2)cc1 (configuration not stated) the “activity change, negative = inhibition” value was inactive: 4.03%. In the case of Cn1ccnc1SCC(=O)Nc1ccc(Oc2ccccc2)cc1, the “activity change, negative = inhibition” value is reported as inactive: -22.6%. O=C(Nc1ccnn1C1CCN(CCCC2CCCC2)CC1)c1ccccc1Cl was tested, and the “activity change, negative = inhibition” value was inactive: 8.14%. With CN(CCOc1ccccc1Cl)Cc1ccccc1 the Potency was inconclusive [inhibitor, partial curve]. C#CCN(Cc1ccco1)C(=O)c1cc(COc2ccc(F)cc2Cl)on1 was tested, and the “activity change, negative = inhibition” value was inactive: -4.92%. With CC1CCN(CCCCOc2ccc(C(=O)c3ccccc3)cc2)CC1 the Potency was inconclusive [inhibitor, single point]. c1cncc(-c2nc(NCCCn3ccnc3)c3ccccc3n2)c1 was tested, and the Potency was inconclusive [inhibitor, single point]. O=C(CN1c2ccccc2Sc2ccccc21)N/N=C/c1ccc([N+](=O)[O-])cc1 was tested, and the Potency was inconclusive [inhibitor, full curve, poor fit]. With CCCS(=O)(=O)N1CCN(C2Cc3ccccc3C2)CC1 the Potency was inconclusive [inhibitor, single point]. For O=c1cc2oc3cc(O)c(O)cc3c(-c3ccccc3O)c-2cc1O, the Potency was active: 1.12 µM. With CC[C@H](C)[C@H](NC(=O)OCc1ccccc1)C(=O)OCC(=O)Nc1ccc(N2CCOCC2)cc1 the Potency was inconclusive [inhibitor, single point]. For Cc1ccc(/C(O)=C2/C(=O)C(=O)OC2c2ccc(Cl)cc2)cc1 (configuration not stated), the “activity change, negative = inhibition” value was inactive: 4.53%. With COc1cc2c(cc1OC)CN(Cc1cccs1)CC2 the Potency was inconclusive [inhibitor, partial curve]. In the case of CC(=O)c1ccc(OC2(C)CCN(Cc3ccc4ccccc4c3)C2)cc1 (configuration not stated), the Potency is reported as inconclusive [inhibitor, partial curve]. For Cc1cccc(S(=O)(=O)Nc2ccc(-c3nc4ccc(C)cc4s3)cc2)c1, the activity change, negative = inhibition was inactive: -11.3% [at 11.6 µM]. In the case of CN(Cc1cn(C)c2ccccc12)C(=S)Nc1cc(F)cc(F)c1, the Potency is reported as inconclusive [inhibitor, single point]. With CC(C)(C)c1ccc(Cn2nnc3c(=O)[nH]c(C4CCCN(C(=O)Cc5cccs5)C4)nc32)cc1 (configuration not stated) the “activity change, negative = inhibition” value was inactive: -11.1%. With Cc1ccc(NC(=O)N(CCCN2CCOCC2)Cc2cc3cc4c(cc3[nH]c2=O)OCO4)cc1 the Potency was inconclusive [inhibitor, full curve, poor fit]. With Cc1ccccc1NC(=O)CSc1nnc(-c2ccco2)c(-c2ccco2)n1 the Potency was inconclusive [inhibitor, single point]. In the case of CCN1CCN(c2ncnc3scc(-c4ccc(C)cc4)c23)CC1, the Potency is reported as inconclusive [inhibitor, partial curve]. With CCOc1ccc(Nc2ccc3nonc3c2[N+](=O)[O-])cc1 the Potency was inconclusive [inhibitor, full curve, poor fit]. With COc1cccc(CNc2ccccc2O)c1OCc1ccccc1F the Potency was inconclusive [inhibitor, single point]. With Oc1c(C(Nc2ccccn2)c2cccnc2)cc(Cl)c2cccnc12 (configuration not stated) the Potency was inconclusive [inhibitor, single point]. In the case of Cc1cccc(C2c3[nH]c4ccccc4c3CCN2C(=O)c2cc(-c3cccn3C)n[nH]2)n1 (configuration not stated), the Potency is reported as inconclusive [inhibitor, single point]. For COc1cc(OC)cc(C(=O)NC(C(=O)Nc2ccc3c(c2)OCCO3)C(C)C)c1 (configuration not stated), the “activity change, negative = inhibition” value was inactive: 0.84%. O=C(O)C(Cc1ccccc1)N1C(=O)/C(=C/c2cccs2)SC1=S (configuration not stated) was tested, and the “activity change, negative = inhibition” value was inactive: 11.5%. O=C(C=Cc1ccccc1O)c1ccccc1O was tested, and the “activity change, negative = inhibition” value was inactive: -14.8%. In the case of NC(=O)CC(NC(=O)Cc1cccc2ccccc12)c1ccc(N2CCN(c3ccccn3)CC2)c([N+](=O)[O-])c1 (configuration not stated), the “activity change, negative = inhibition” value is reported as inactive: 0.815%. In the case of COc1ccc(N2CCN(Cc3cc4c(cc3O)CCC4)CC2)cc1, the Potency is reported as active: 15 µM. Cc1ccccc1Nc1scc(-c2ccc(Br)cc2)[n+]1-c1ccccc1C was tested, and the Potency was inconclusive [inhibitor, full curve]. In the case of O=C(CCCCO)CCCCCCCC[C@H]1N[C@H](CO)[C@H](O)[C@@H]1O[C@@H]1O[C@H](CO)[C@@H](O)[C@H](O)[C@H]1O, the “activity change, negative = inhibition” value is reported as inactive: 13.3%. With Cc1ccc(C)c(N2CCN(C(=O)C3CCCN(c4ncnc5c4nc4n5CCCCC4)C3)CC2)c1 (configuration not stated) the “activity change, negative = inhibition” value was inactive: -11.8%. With NS(=O)(=O)c1ccc(CCNCc2cc(Br)ccc2OCc2ccccc2F)cc1 the Potency was inconclusive [inhibitor, partial curve]. With Cc1cccc(-c2noc(CN(C(=O)c3ccc(Br)o3)C(C)C)n2)c1 the Potency was inconclusive [inhibitor, single point]. In the case of O=C(NCCS(=O)(=O)NCc1ccc2c(c1)OCO2)c1ccccc1, the “activity change, negative = inhibition” value is reported as inactive: 3.73%. For O=C(Cn1nc(C(=O)O)c2ccccc2c1=O)NCCC1=CCCCC1, the Potency was inconclusive [inhibitor, single point]. With Cc1ccc(C2(C)NC(=O)N(CC(=O)N3CCN(S(=O)(=O)c4cccc(F)c4)CC3)C2=O)cc1 (configuration not stated) the “activity change, negative = inhibition” value was inactive: 4.76%. For CC(=O)N(c1nnc(-c2cccc(C)c2)s1)C1CCCC1, the “activity change, negative = inhibition” value was inactive: 0%. For Cc1ccccc1C(=O)NC(=S)NCCC1=CCCCC1, the “activity change, negative = inhibition” value was inactive: 17.1%. In the case of C(=N\Nc1nc2ccccc2[nH]1)/c1c[nH]c2ccccc12, the “activity change, negative = inhibition” value is reported as inactive: -16.6%. CC1CCN(C(=O)c2ccc(NC3=C(Cl)C(=O)N(Cc4ccccc4)C3=O)cc2)CC1 was tested, and the Potency was inconclusive [inhibitor, partial curve, poor fit]. In the case of COC(=O)C1=C(C(=O)OC)[C@@H]2N(C)c3ccc(OC)cc3[C@@]23C[C@@H](C(=O)OC)N(C(=O)C2CCC2)C3=N1, the Potency is reported as inconclusive [inhibitor, single point]. In the case of O=C(NCc1cccs1)C(=O)NCC(c1ccco1)N1CCN(c2ccc(F)cc2)CC1 (configuration not stated), the Potency is reported as inconclusive [inhibitor, partial curve]. In the case of c1cc(N2CCCC2)ccc1C(c1nnnn1C1CCCCC1)N1CCOCC1 (configuration not stated), the “activity change, negative = inhibition” value is reported as inactive: -3.39%. In the case of COc1ccccc1NC(=O)c1cc2ccccc2o/c1=N\O, the Potency is reported as inconclusive [inhibitor, partial curve]. For COc1cc(OC)c2ccc(=O)oc2c1C(CCN1CCCC(C)C1)c1ccc(N(C)C)cc1 (configuration not stated), the Potency was inconclusive [inhibitor, single point]. With COc1ccc(-c2cc3c(c4c2ccn4C)C2CCC3C2)cc1 (configuration not stated) the Potency was inconclusive [inhibitor, partial curve]. In the case of CCOC(=O)c1ccc2[nH]c(C)c(C)c2c1, the “activity change, negative = inhibition” value is reported as inactive: -5.3%. In the case of C=CCOc1c(Br)cc(CNc2ccc(NC(=O)C(C)C)c(OC)c2)cc1OC, the Potency is reported as inconclusive [inhibitor, single point]. CCN(Cc1ccncc1)C(=O)CCc1nnc(CCc2ccc(OC)cc2)o1 was tested, and the “activity change, negative = inhibition” value was inactive: 17.9%. For CCc1n[nH]c(=S)n1/N=C/c1cc(OC)cc([N+](=O)[O-])c1O, the Potency was inconclusive [inhibitor, single point]. For COc1ccc(-c2[nH]ncc2/C=N/NC(=O)c2ccncc2)c(OC)c1, the “activity change, negative = inhibition” value was inactive: 13.2%. In the case of CC(=O)Nc1ccc(NC(=O)C(C)OC(=O)c2cc(S(=O)(=O)N3CCOCC3)ccc2Cl)cc1 (configuration not stated), the Potency is reported as inconclusive [inhibitor, single point]. N#Cc1c(NC(=O)CSC2=NCCS2)sc2c1CCCC2 was tested, and the “activity change, negative = inhibition” value was inactive: -10.9%. In the case of CCCOc1ccc(/C=N/Nc2ccccc2[N+](=O)[O-])c(OCCC)c1, the Potency is reported as inconclusive [inhibitor, full curve]. For CCOC(=O)C1CCN(C(=O)CCS(=O)(=O)Cc2ccccc2)CC1, the “activity change, negative = inhibition” value was inactive: 7.15%. COc1ccc(Cn2c(=O)[nH]c3cc(C(=O)N4CCN(c5ccccn5)CC4)ccc3c2=O)cc1 was tested, and the “activity change, negative = inhibition” value was inactive: 3.76%. Fc1ccc(N2CCN(Cc3cc4c(cc3Br)OCO4)CC2)cc1 was tested, and the Potency was inconclusive [inhibitor, partial curve]. In the case of CCCCC(=O)N/N=C/c1ccc(-c2ccc([N+](=O)[O-])cc2)o1, the “activity change, negative = inhibition” value is reported as inactive: -22%. CCCC(=O)NC(=S)Nc1ccc(N2CCN(C(=O)c3cccs3)CC2)cc1 was tested, and the activity change, negative = inhibition was inconclusive: -16.1% [inhibitor]. N#CC(C#N)=c1ccc2c(c1)N1C3=C(CCCC3)CC3CCCCC31N=2 (configuration not stated) was tested, and the Potency was inconclusive [inhibitor, single point]. For CCc1cc(C(c2ccccc2OC)N2CCOCC2)c(NC(=O)c2ccccc2)s1 (configuration not stated), the Potency was inconclusive [inhibitor, single point]. With CCc1ccc2[nH]c(=O)c(CN(Cc3ccccc3)C(=O)Nc3ccccc3OC)cc2c1 the “activity change, negative = inhibition” value was inactive: 3.93%. O=C1C2C(c3cccc(/C=C/c4ccccc4)c3)CC=CC2C(c2ccc3ccccc3c2)N1Cc1ccccc1 (configuration not stated) was tested, and the “activity change, negative = inhibition” value was inactive: -7.16%.
Also: nearly all actives have a fitted effect of over 45% in size.
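For activity change, negative = inhibition in this document: 0% = vehicle wells and -100% = peptide control.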
Potency is read from the fitted curve at half-maximal effect; tags tell the direction and shape of the fitted curve.
